The record followed here is article PMC4336329 (PLoS ONE, 2015).

Among all 310,000 compounds or so, about 14,000 (4.5%) showed an effect of 50% or more. Effects have a minus sign here. The list shows a part of the results.
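Note: peak tail current of the secondary pulse compared with the same well before compound.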

Sequence of human ether-à-go-go-related gene (hERG) potassium channel (Q12809 whole entry, looked up): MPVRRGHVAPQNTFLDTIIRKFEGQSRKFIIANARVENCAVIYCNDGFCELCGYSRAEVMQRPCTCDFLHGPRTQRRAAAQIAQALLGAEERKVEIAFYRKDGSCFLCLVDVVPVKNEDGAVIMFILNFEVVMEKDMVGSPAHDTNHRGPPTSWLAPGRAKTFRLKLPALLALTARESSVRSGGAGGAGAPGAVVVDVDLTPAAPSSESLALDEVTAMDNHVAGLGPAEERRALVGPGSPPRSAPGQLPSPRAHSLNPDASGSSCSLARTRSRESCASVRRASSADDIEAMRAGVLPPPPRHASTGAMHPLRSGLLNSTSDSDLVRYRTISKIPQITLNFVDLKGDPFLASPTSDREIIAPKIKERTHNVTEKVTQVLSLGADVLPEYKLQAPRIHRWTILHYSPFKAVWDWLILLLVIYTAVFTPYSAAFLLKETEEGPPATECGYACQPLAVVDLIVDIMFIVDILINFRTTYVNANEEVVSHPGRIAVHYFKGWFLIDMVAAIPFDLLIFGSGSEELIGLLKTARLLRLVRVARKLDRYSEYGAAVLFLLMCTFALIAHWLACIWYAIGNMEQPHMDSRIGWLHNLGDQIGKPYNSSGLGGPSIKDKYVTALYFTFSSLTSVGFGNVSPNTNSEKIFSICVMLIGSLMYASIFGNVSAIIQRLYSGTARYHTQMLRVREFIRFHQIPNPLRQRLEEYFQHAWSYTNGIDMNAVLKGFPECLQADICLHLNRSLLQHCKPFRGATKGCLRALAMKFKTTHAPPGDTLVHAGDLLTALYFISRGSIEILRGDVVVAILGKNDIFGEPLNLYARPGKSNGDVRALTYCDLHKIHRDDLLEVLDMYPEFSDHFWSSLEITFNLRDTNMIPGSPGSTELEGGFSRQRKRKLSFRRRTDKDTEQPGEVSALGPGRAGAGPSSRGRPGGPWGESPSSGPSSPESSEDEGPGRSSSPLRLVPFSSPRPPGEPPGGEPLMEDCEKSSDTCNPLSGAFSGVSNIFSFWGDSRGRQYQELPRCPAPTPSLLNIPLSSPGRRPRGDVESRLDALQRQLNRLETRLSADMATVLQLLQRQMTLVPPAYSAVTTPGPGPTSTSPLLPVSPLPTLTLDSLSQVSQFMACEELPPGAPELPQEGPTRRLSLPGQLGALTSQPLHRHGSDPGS

This experiment addresses human ether-à-go-go-related gene (hERG) potassium channel (human, UniProt Q12809). The experiment in a line: primary screen, population patch clamp on CHO cells stably expressing hERG.
Take `CCc1ccc(NC(=O)C2CCN(C(=O)[C@@H]3Cc4ccccc4CN3)CC2)cc1`: the “hERG current change (%, negative = inhibition) at 10uM” value is -59.5%.
For `Cc1ccc(CCNC(=O)CS(=O)Cc2nc(-c3cccs3)oc2C)cc1` (centres unmarked) the value was -14.5%; for `O=C(N/N=C/c1ccco1)c1cccc(N2CCCC2=O)c1`, 10.3%.
For `Cc1cccc(NC(=O)COc2ccc(Br)cc2C)n1` the value was 6.47%.
For `COc1ccc(CN2CCc3cc(OC)c(OC)cc3C2)cc1O` the value was -43.3%; for `O=C(Nc1ccc(-c2nc3ccccc3[nH]2)cc1)c1ccc(N2C(=O)CCC2=O)cc1`, 1.17%; for `NC(=O)Cn1cc(/C=N\NS(=O)(=O)c2ccccc2)c2ccccc21`, 22.3%.
Regarding `Cc1ccc(C2(C)NC(=O)N(CC(=O)Nc3ccccc3N3CCCCC3)C2=O)cc1` (centres unmarked), the “hERG current change (%, negative = inhibition) at 10uM” value was -4.23%.
Turning to `O=C(NCCCn1ccnc1)C(=O)NCC(c1ccco1)N1CCN(c2ccc(F)cc2)CC1` (centres unmarked), the “hERG current change (%, negative = inhibition) at 10uM” value was -11.7%.
Take `CC1(C)N=C(c2cccc(F)c2)C(=O)N1`: the “hERG current change (%, negative = inhibition) at 10uM” value amounted to 0.697%.
For `Cc1cccnc1NC(=O)C1CCN(S(=O)(=O)c2ccc3ccccc3c2)CC1` the value was 5.39%; for `O=C(c1cc([N+](=O)[O-])ccc1N1CCOCC1)N1CCCC1`, -3.68%.
In the case of `O=C1CCCc2nc3c(cc21)C(O)Oc1c-3ccc2ccccc12` (centres unmarked), the “hERG current change (%, negative = inhibition) at 10uM” value turned out to be 17.7%.
For `CCOc1cc(C(=O)N/N=C/c2ccoc2)cc(OCC)c1OCC` the value was 5.67%.
For `O=C(Nc1ccc2c(c1)OCO2)c1cccc2c1C(=O)N(C1CCCCC1)C2` the value was 21.1%; for `CCCC/C(C)=N/NC(=O)Nc1ccccc1`, -16.7%.
For `CCOc1ccc(N(C)S(=O)(=O)c2cc(-c3cc(C)no3)ccc2OC)cc1` the value was -3.09%.
For the compound `Nc1ccccc1C(=O)NNc1ncc(C(F)(F)F)cc1Cl`, the “hERG current change (%, negative = inhibition) at 10uM” value is listed as -10.8%.
For `CCOc1cccc(/C=C(/C#N)c2nc3ccccc3[nH]2)c1OCC(=O)O`, the “hERG current change (%, negative = inhibition) at 10uM” value was found to be 14.1%.
For `COc1ccc(S(=O)(=O)NN=C2CCCCC2)cc1` the value was -3.91%.
For `COc1cc(/C=N\NC(=O)CNC(=O)C2COc3ccccc3O2)ccc1O` (centres unmarked) the value was -26.8%.
For the compound `CCCCCOc1ccc(C(O)C(CN2CCOCC2)c2ccccc2)cc1.Cl` (centres unmarked), the “hERG current change (%, negative = inhibition) at 10uM” value was found to be 9.77%.
Regarding `COc1cc(C)nc(N2CCC(C(N)=O)CC2)n1`, the “hERG current change (%, negative = inhibition) at 10uM” value is on record as -9.99%.
For `O=C(NCc1ccccn1)/C(=N/O)c1ccccc1` the value was 12.7%; for `COc1cc(N2CCOCC2)ccc1/C=C1\C(=O)NC(=O)N(Cc2cccs2)C1=O`, 11.4%; for `O=C(Nc1ccc2c(c1)CCC2)c1cccc(OC(F)F)c1`, -40.1%.
Regarding `O=C(NC(=S)Nc1ccc(O)cc1)c1ccccc1Cl`, the “hERG current change (%, negative = inhibition) at 10uM” value amounted to 13.9%.
With `Cc1ccc(NC(=O)NC(=O)CSc2nnc(-c3ccc(Cl)cc3Cl)n2N)c(C)c1`, the “hERG current change (%, negative = inhibition) at 10uM” value was -6.38%.
For `O=C1C2C(C(=O)N1c1nccs1)C1C=CC2C12CC2` (centres unmarked) the value was -8.95%; for `COc1ccc(/C=c2\s/c(=C/C(=O)c3ccc(C)cc3)[nH]c2=O)c(OC)c1`, 17.2%; for `Fc1cccc(Cl)c1COc1ccc(-c2nnco2)cc1`, 11.8%.
For `CCC(C)(C(=O)NC1CCCCC1)N(Cc1cccs1)C(=O)Cc1cccs1` (centres unmarked) the value was -2.91%.
Regarding `CCn1c(SCC(=O)OC2CCCCC2)nnc1-c1ccncc1`, the “hERG current change (%, negative = inhibition) at 10uM” value was -13.6%.
As to `COc1cccc(NC(=O)CN(C)C(=O)CSc2nc3ccccc3s2)c1`, the “hERG current change (%, negative = inhibition) at 10uM” value is -30.3%.
For `CC1CN(C(=O)CSc2nnc(-c3ccc(Cl)cc3)n2C)CC(C)O1` (centres unmarked) the value was -8.54%; for `Cc1c(-n2cc(C(=O)c3ccccc3O)cc(C#N)c2=O)c(=O)n(-c2ccccc2)n1C.Cl`, -14.8%; for `CCCCn1c(N)c(N(CCOC)C(=O)CCS(=O)(=O)c2ccc(Cl)cc2)c(=O)[nH]c1=O`, 23.2%.
For `Cc1ccc(S(=O)(=O)Nc2ccccc2C(=O)NCc2cccnc2)cc1` the value was 4.79%; for `O=[N+]([O-])c1cc(C(F)(F)F)c(Cl)cc1N1CCN(CCO)CC1`, -39.2%; for `O=P(CN1CCN(c2ccccc2)CC1)(N1CCCCC1)N1CCCCC1`, -16.3%.
Regarding `COc1ccc(NC(=O)COC(=O)Cc2c(F)cccc2Cl)cc1OC`, the “hERG current change (%, negative = inhibition) at 10uM” value was -0.828%.
For `Cc1cc(C(=O)CSc2nnc(Cc3ccccc3)o2)c(C)n1Cc1ccc2c(c1)OCO2` the value was 1.62%.
For `CCOc1ccccc1N(CC)C(=O)c1nn(C)c2c1CSc1ccccc1-2` the value was 4.53%; for `CCn1c(/C=C2\C(=O)Nc3ccccc32)nc2ccccc2c1=O`, -18.3%.
For `CCCCOCCCNC(=O)Cc1cccs1` the value was 1.1%; for `CCCCNC(=S)NCc1ccc2[nH]c(C)cc2c1`, -17.2%; for `OCCN1CCN(c2ncnc3c2c(-c2ccccc2)cn3-c2ccc(Br)cc2)CC1`, -15.2%.
For the compound `CC(=O)N1CC2(C)CN(C(C)=O)CC(C)(C1)C2O` (centres unmarked), the “hERG current change (%, negative = inhibition) at 10uM” value is 4.9%.
For `O=C(NCCCN1CCOCC1)C1CC(=O)N(CCc2ccccc2)C1` (centres unmarked) the value was 9.08%.
For `CCCCn1c(-c2cccnc2)nc2cc3[nH]c(=O)c(C(C)C)nc3cc21` the value was -50.4%.
Regarding `Cc1ccc(C)c(NC(=S)NNC(=O)c2csc3c2CCCC3)c1`, the “hERG current change (%, negative = inhibition) at 10uM” value is on record as -7.78%.
As for `CCOC(=O)C1=CC[C@H]2c3c(c4ccccc4n3C)C[C@H]1N2C`, the “hERG current change (%, negative = inhibition) at 10uM” value worked out at 3.88%.
For `Nc1c(C(=O)c2ccc(Cl)cc2)sc2nc3c(cc12)CCC3` the value was 12%; for `COc1ccc(C2Nc3ccccc3C(=O)N2NS(=O)(=O)c2ccccc2)cc1OC` (centres unmarked), 13.5%.
For the compound `CN(C(=O)c1cccs1)c1ccc(OCC(=O)Nc2ccc(C(=O)O)cc2)cc1`, the “hERG current change (%, negative = inhibition) at 10uM” value was 8.12%.
For `CCNS(=O)(=O)c1ccc(NC(=O)Nc2cc(C)ccc2OC)cc1` the value was -8.52%.
For `O=C(Nc1cccc([N+](=O)[O-])c1)NC1CCCCCCC1` the value was 6.91%.
Regarding `O=C(O)C(=O)O.OCCNCCCOc1ccc(Cl)cc1Br`, the “hERG current change (%, negative = inhibition) at 10uM” value was -54.9%.
For `O=C(CSc1n[nH]c(=O)[nH]c1=O)c1cccc([N+](=O)[O-])c1` the value was 20.2%; for `NCCCC[C@@H]1NC(=O)[C@H](CCC(=O)O)NC(=O)c2cc([N+](=O)[O-])cc(I)c2NCC[C@@H](C(N)=O)NC1=O`, 23%.
For `CC(=O)Nc1ccc(OC(=O)CC2SC(=O)NC2=O)cc1` (centres unmarked) the value was -5.43%; for `COc1ccc(NC(=O)CSc2nnc(C)n2C2CC2)cc1S(=O)(=O)N1CCOCC1`, 20.8%; for `COC(=O)c1cccc(NC(=O)/C(=C\c2ccccc2)NC(=O)c2ccccc2Cl)c1`, 6.44%.
For `Cc1ccc(CN(C(=O)c2csnn2)C(C(=O)NC2CCCC2)c2ccccn2)cc1` (centres unmarked) the value was -4.3%; for `C/C(CC(=O)Nc1cccc(Cl)c1Cl)=N\NC(=O)c1ccccc1Br`, -3.56%.
Turning to `CC(C)(C)c1ccc(-c2nc3[nH]c(=O)cc(NC(=O)c4ccco4)n3n2)cc1`, the “hERG current change (%, negative = inhibition) at 10uM” value was determined as 21%.
As for `CCCSCCCNC(=O)Cn1cc2c(n1)CCC(C)C2` (centres unmarked), the “hERG current change (%, negative = inhibition) at 10uM” value is -12.8%.
For `CCN1CCN(c2nc3c(C)cccn3c(=O)c2/C=C(\C#N)C(=O)NC)CC1`, the “hERG current change (%, negative = inhibition) at 10uM” value was determined as 8.87%.
In the case of `COCC(C)n1c(C)cc(C(=O)COc2ccc(S(=O)(=O)N3CCOCC3)cc2Cl)c1C` (centres unmarked), the “hERG current change (%, negative = inhibition) at 10uM” value was -11.9%.
With `COc1ccc(-c2c(NC(=O)c3ccco3)oc3ccc(Cl)cc3c2=O)cc1`, the “hERG current change (%, negative = inhibition) at 10uM” value is listed as 19.7%.
For `Cc1ccc2c(Cl)c(C(=O)NCC3CCCO3)sc2c1` (centres unmarked) the value was -12.8%.
For `COc1ccc(/C=N/n2cnnc2SCc2ccccc2)cc1` the value was -2.99%.
For `O=C(NCCc1cccc(Cl)c1)c1cc([N+](=O)[O-])ccc1Cl` the value was -51%; for `Cc1ccc(N2CCN(C3=NC(=O)/C(=C\c4cn[nH]c4-c4ccccc4)S3)CC2)cc1`, 2.07%; for `CCOC(=O)/C=C1\NC2(CCCCC2)Cc2cc(OC)c(OC)cc21`, 0.854%.
For `COCCN1C(=O)N[C@@H](c2cccc(F)c2)C(C(=O)OC)=C1C`, the “hERG current change (%, negative = inhibition) at 10uM” value was -30.9%.
On to `O=C(O)c1sccc1Oc1ccc(NS(=O)(=O)c2ccccc2)cc1`, for which the “hERG current change (%, negative = inhibition) at 10uM” value was found to be 19.6%.
For `CCCCn1c(N)c(N(CC(C)C)C(=O)c2ccc(N3C(=O)c4ccccc4C3=O)cc2)c(=O)[nH]c1=O` the value was -0.0389%; for `CC(C)c1csc(CN2CCC(N3CCC(C(=O)NCC4CCCO4)CC3)CC2)n1` (centres unmarked), -20.5%; for `CCOC(=O)c1ccc(N2C=C(C(=O)OC)C(c3ccc(OC)c(O)c3)C(C(=O)OC)=C2)cc1`, 16.9%.
For `CC(C)[C@H](NC(=O)c1ccccc1Cl)C(=O)OCc1cc([N+](=O)[O-])cc2c1OCOC2` the value was -23.8%; for `O=C1CCCN1CCCNC(=S)Nc1ccc(F)cc1`, 8.5%; for `Cc1ccc(-n2c(C)nc3ccccc3c2=O)c(C)c1`, 4.03%.
For `C=CCn1c(SCC(=O)c2cc(C)n(CC3CCCO3)c2C)nnc1-c1ccccc1` (centres unmarked) the value was -13.8%.
Take `Cc1ccc(-c2csc3nc[nH]c(=O)c23)cc1`: the “hERG current change (%, negative = inhibition) at 10uM” value turned out to be 6.88%.
For `CCC(=O)Nc1ccc(C(=O)OCC(=O)c2cccs2)cc1` the value was 9.97%.
